Sequences and labels used below:
T1: UNK ZnF1-3 (human, UniProt Q9C0B0 31-174)
T1 sequence: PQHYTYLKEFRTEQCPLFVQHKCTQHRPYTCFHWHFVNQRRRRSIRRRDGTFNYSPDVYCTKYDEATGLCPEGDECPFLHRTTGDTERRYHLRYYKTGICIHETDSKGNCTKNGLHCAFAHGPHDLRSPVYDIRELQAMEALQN

B1: chr4:140309118:140309119:+_ENSG00000164134_ENST00000296543|hu_hu|FALSE|FALSE (ssRNA)
RNA: GGGAGUUCUACAGUCCGACGAUCAUAUCCAGGAGGCAUGAAAGCCAAAGCAUAAGGGAAAAGCUUAUGACAAUUUGCUCUAUAAAUUUCAGCAGCUUCUUUACAGUCUCCUAGGCUACCAUCAUACAAGGCUUCCAAUACCUCCAACAGAGGAUUGAGCAUCA
B2: chr2:122217683:122217684:-_ENSG00000074054_ENST00000409078|hu_hu|motif|central (ssRNA)
RNA: GGGAGUUCUACAGUCCGACGAUCACGCAAAUGUUGAAAGAAGUUAUCAUACUCAGCAGCACCAGCCAAAAGUAAAGAUCGGAUCUUUUUUAGAGCAUUUACUCUCUGCUCCCAAUCAUGCUUGUCAUCAGAUAAUAUUUCCCUCAACAGAGGAUUGAGCAUCA
B3: 102499477_102499683_10379_CDS_ENSG00000197102_ENST00000360184|human|control|control (ssRNA)
RNA: GGGAGUUCUACAGUCCGACGAUCGUCCUUGGCGUCAUCUUCCAGCUUCUGCAGCUCAUUGCGUAGGGGCUCCACUCUCUUUAACAUGUCUGCAUAGUUAAGCUGUGCAAUUGCCCAUUUCACCAUAGGGCCGCAAGCCAGGGACAACAGAGGAUUGAGCAUCA
B4: chr8:59359966:59359967:+_ENSG00000215114_ENST00000399598|hu_mus|motif|central (ssRNA)
RNA: GGGAGUUCUACAGUCCGACGAUCCGCAAAUUCAGGACGUGACCGUACUAUAAAGUCUCGUACAUCCAGAAUCCGGUGUGUGCGGUUGAAUCUCUGUACGAGACGACUUCCAUCUGCCAACCUGAUCUGAAUUUUUGUGGUGGGCAACAGAGGAUUGAGCAUCA
B5: chr11:50196439:50196440:+_ENSMUSG00000007850_ENSMUST00000069304|mus_mus|FALSE|FALSE (ssRNA)
RNA: GGGAGUUCUACAGUCCGACGAUCCCCAUAUCUGUGGUCAGACAUUCCUGAAAAACAAUAAUUGAGGUCUCUUCCAAAUCUAUCUGAACCAAAUCCAUAGCCAUCAUUAUAGCCAUUAUAAUCAUCAUAGCCUCCAUAGCCUCCCAACAGAGGAUUGAGCAUCA
B6: chr9:79616815:79616816:-_ENSMUSG00000032328_ENSMUST00000034878|mus_hu|FALSE|FALSE (ssRNA)
RNA: GGGAGUUCUACAGUCCGACGAUCAAGACACCUGAACAUAGCAAAAUUAAUUUUGUUCAUUUUUAUUAACAUAGGACAUACUAACCAAAUAUUAUCAUUUAAUAAAAUCAACGUUACAAAGAAACUCACUAGCAAAUAAACAAACAACAGAGGAUUGAGCAUCA
B7: chr3:37096630:37096631:-_ENSG00000093167_ENST00000421276|perfect_dup|motif|central (ssRNA)
RNA: GGGAGUUCUACAGUCCGACGAUCUUGUUCCAAGGUAGCUAUGUCUUGUUCUGCUUUCGAAAGCUUGAAUUUGUAUUCACGGAUUUGUCUAUUGGCAUCUCUCUGCAUCUCGAUGAACUGCAAGUCUGAGCCGUUCUGCAGUCCCAACAGAGGAUUGAGCAUCA
B8: 47738096_47738216_1977_3pUTR_ENSMUSG00000023988_ENSMUST00000024783|mouse|control|control (ssRNA)
RNA: GGGAGUUCUACAGUCCGACGAUCGACAGGGAGGAGCCAGCAGUGACUCCCACCUCUCCCGUGGGUGACAGGGGAGAGAGGCAGGGACCUCCAGGGACCAAAACACAAGAGCUGCGAUAAAUAAAUGCCUGUUUUCUCCGCACCCAACAGAGGAUUGAGCAUCA
B9: chr14:94519448:94519449:-_ENSG00000089737_ENST00000330836|hu_mus|FALSE|FALSE (ssRNA)
RNA: GGGAGUUCUACAGUCCGACGAUCUGAGUUGUGCAGACAAGCCUGGAAGUUCCGGUAUUCAGCUUUUUCAAUCUGUCGGGCUAGACGGAUCCGCUCCUUGACCACAUCCAUGUACUUGGACUGCACUGGAAACAGUGGGAUGUCCAACAGAGGAUUGAGCAUCA
B10: chr5:121736274:121736275:+_ENSMUSG00000042744_ENSMUST00000119892|mus_mus|motif|central (ssRNA)
RNA: GGGAGUUCUACAGUCCGACGAUCCUGGUGAAUGCACAUGGCGCCAACAUGGUGCAGUAACUGGUUUAUGACUUCAUUUGUGCGGAUGGCCUCUUCUUUGGGCUCGGUGAUGAUAUGGCUGACACCCAGUCUCUGGCACACGUACAACAGAGGAUUGAGCAUCA
B11: chr5:43656058:43656059:+_ENSG00000112992_ENST00000512996|hu_hu|motif|central (ssRNA)
RNA: GGGAGUUCUACAGUCCGACGAUCGUAGGCCACAAUCUUGGUGAGAUUUGCUGCUGCAUCCGUAGCAAAAUGUGGAUAUUCGGUAAUGUACUCAGCUAUGCAAGUAAGUACAGCUGCCAAACCCACUAAACUGUGAAAAGCAGCCAACAGAGGAUUGAGCAUCA
B12: chr12:2981354:2981355:-_ENSG00000111206_ENST00000359843|hu_hu|motif|central (ssRNA)
RNA: GGGAGUUCUACAGUCCGACGAUCGCGGGAGCCCAGUCCAUCAGAACUCAUCUUUCGAAGCCACUGGAUGUUGGAUAGGCGGUUGUUGAUAGUGCAGCCUGCUGCCUCACCAUCUGCACAGGUCUCCCGUUUCUGCUCGCAAAGCAACAGAGGAUUGAGCAUCA
B13: 107696830_107697939_2073_CDS_ENSMUSG00000019907_ENSMUST00000070663|mouse|control|control (ssRNA)
RNA: GGGAGUUCUACAGUCCGACGAUCUCUUCCUAUUGUUUUUUCAGCUUCCUGAAGAUCAGUCAGUGUUACCCCCUGUGUUGACCGUCUAGACUGUCUUGCUUGUCUAGAUCUUGCUUUUCUUUGGGAUUCAGACUCUUCGUCCCUCAACAGAGGAUUGAGCAUCA
B14: chr18:67943652:67943653:+_ENSMUSG00000079614_ENSMUST00000025421|mus_mus|FALSE|FALSE (ssRNA)
RNA: GGGAGUUCUACAGUCCGACGAUCAGUUGUCCUCUUCACCCAGUGACUCUGUCCUCGAAGUUUAUCGUUUGAUUCUCCCACUAUUUCUUCCCAUACAGCUGCUGUUCGGUCAAAAGAACAGGAAGCCAAAACUUGUCCAAAUUCCAACAGAGGAUUGAGCAUCA
B15: chr3:90056536:90056537:+_ENSMUSG00000052310_ENSMUST00000015467|mus_mus|FALSE|FALSE (ssRNA)
RNA: GGGAGUUCUACAGUCCGACGAUCCAGCUUGUCUCUGAGAUGUACUGCCUGGCCUCUGACUGUAGCAGUCUGCCUCCUUCUAAUGUCCCUGACCACGUCUGUAGUAACUUCGCUAUCUCUUAUUCUUUGGGUCUGGGGCUAGCCCAACAGAGGAUUGAGCAUCA
B16: chr2:29016751:29016752:+_ENSG00000213639_ENST00000296122|perfect_dup|FALSE|FALSE (ssRNA)
RNA: GGGAGUUCUACAGUCCGACGAUCUUUAGCAAAAAAUUCAUAUCCAUCUUCCACCACCUGAUGAGCUCGACAAAUCAAAUCUAAAUCAUGACGAUUCAGAAAUUUACUGACUACAUCAGCUCCAAAAGUAAAGGAAACACCACGCAACAGAGGAUUGAGCAUCA
B17: chrX:17831648:17831649:+_ENSMUSG00000037369_ENSMUST00000044484|mus_mus|FALSE|FALSE (ssRNA)
RNA: GGGAGUUCUACAGUCCGACGAUCAGUGGACUUAGGAGAAGGUGUUGCUGUGGAAAUGGCUGAAGAUGGUGAAGAGGCAACAGAAUUAUCAGUCUUUGUAUGGACAGUUGGGUGGAUGUUAUUGACUUUGUCACAGGUUCCAGGCAACAGAGGAUUGAGCAUCA
B18: chr1:150204246:150204247:-_ENSG00000143401_ENST00000314136|hu_mus|motif|central (ssRNA)
RNA: GGGAGUUCUACAGUCCGACGAUCAAAGGUGUCAUUCAGGCCUUCGAUUUCCCCAUUGACACACAAGCAAUUAUCGAGGACGGACUCUGUCACCUCCUCCGGGGCUCUGUUCUUCAACUCCAUGUUAAUCUUCUUCUUCAUCUCCAACAGAGGAUUGAGCAUCA
B19: chr1:225611761:225611762:-_ENSG00000143815_ENST00000272163|hu_mus|hu_hu_hu_mus_True|28_98 (ssRNA)
RNA: GGGAGUUCUACAGUCCGACGAUCCCAGGCCAUCGGCCUCUUACCACUUCACCCUCAACAAACUUCCUACUUGGCAUUUUCUAAAAUUAGUCUGGCCGCGCUCCGGCCGGUGACACGGCCACUCCAGGACAGUCACCAGCAGCCCAACAGAGGAUUGAGCAUCA
B20: chr7:138189096:138189097:+_ENSG00000122779_ENST00000415680|hu_mus|motif|central (ssRNA)
RNA: GGGAGUUCUACAGUCCGACGAUCAGACUUUUCUACUGUACUACUAGGAACUUCAGUGGUGUCCUUCACAAAAAAGUUGUCGGUGAUGUGUCUCUCAGCACACUCUUGACUGCAAACUGGGCAUCGAAUGACUCCAACUUGGGUCAACAGAGGAUUGAGCAUCA
B21: chr4:109034340:109034341:+_ENSMUSG00000028552_ENSMUST00000102729|mus_hu|motif|central (ssRNA)
RNA: GGGAGUUCUACAGUCCGACGAUCCUCUUCUCUAGCUUUUGCCAAUUCUUCUUCGUAAGUGGAGAUCUGCGAUUCCUGACGGGUUAAUUCAGCUUUCAGAGAAGAGAUCAGUUGGGCCUCCUCAGCACAUUUCUUUCUGACUUCCAACAGAGGAUUGAGCAUCA
B22: chr2:62103298:62103299:-_ENSG00000115484_ENST00000544079|hu_mus|FALSE|FALSE (ssRNA)
RNA: GGGAGUUCUACAGUCCGACGAUCCAGGAUAGACUUCUGUAUGAGAAGGACAUUACAUCCUGUUUUCUUAAUUUGCUUCACCAAAUUUAAAAUAUAGGCUCUCUCCUCUCGAAGCACUCGAUCCAUCUGGGCAUAGUCAGAUACCAACAGAGGAUUGAGCAUCA

The source of these data is paper PMC12136788.

This is one part of the list.

The assay addresses T1, UNK ZnF1-3. Kind of assay: nsRBNS (natural sequence RNA bind-n-seq); RBNS binding buffer (assumed for nsRBNS): 25 mM Tris pH 7.5, 150 mM KCl, 3 mM MgCl2, 0.01% Triton X-100, 500 ug/ml BSA, 20 U/ml SUPERase-In, 4 C; UNK is unkempt and MSI1 is Musashi-1; names of the RNAs are library labels; protein concentration not given here; high values mean tight binding.
On to B1, for which the binding signal was found to be 0.811 enrichment R. For B2 the value was 1.41 enrichment R; for B3, 0.45 enrichment R; for B4, 0.701 enrichment R. For B5 the value was 1.49 enrichment R; for B6, 1.51 enrichment R; for B7, 0.553 enrichment R.

The molecule B8 displayed a binding signal of 1.78 enrichment R.

B9 returned a binding signal of 0.738 enrichment R. For B10 the value was 0.83 enrichment R; for B11, 0.53 enrichment R. The figure for B12 is 0.731 enrichment R; for B13 it is 0.251 enrichment R; for B14 it is 1.03 enrichment R. For the molecule B15, the binding signal turned out to be 0.564 enrichment R. For B16, the binding signal stood at 1.25 enrichment R. The figure for B17 is 1.63 enrichment R; for B18 it is 0.605 enrichment R; for B19 it is 1.19 enrichment R. For B20 the value was 0.869 enrichment R; for B21, 0.566 enrichment R. For B22 the value was 0.902 enrichment R.
